Data: the BET-seq Pho4 binding data (Le et al. 2018)
Some of the results follow. These are noisy estimates, calculated here from bound and input reads.

biological target: T1, Pho4 (S. cerevisiae) (UniProt P07270); experiment: relative binding free energy (BET-seq); higher = weaker binding; details: reference: library average
T1 sequence: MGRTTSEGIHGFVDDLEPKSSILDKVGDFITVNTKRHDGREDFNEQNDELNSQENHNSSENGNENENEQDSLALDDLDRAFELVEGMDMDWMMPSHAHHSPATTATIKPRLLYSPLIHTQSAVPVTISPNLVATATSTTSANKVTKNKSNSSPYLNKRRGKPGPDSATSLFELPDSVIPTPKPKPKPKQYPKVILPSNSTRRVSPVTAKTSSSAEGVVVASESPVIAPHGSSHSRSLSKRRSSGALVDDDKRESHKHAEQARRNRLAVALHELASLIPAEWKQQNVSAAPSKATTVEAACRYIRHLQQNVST

Sequence	relative binding free energy [kcal/mol]
TAAGTCACGTGAAATT	0.2
AAGCTCACGTGGTGTA	0.19
GGTCGCACGTGAGGTA	0.19
GTGTGCACGTGGAATT	0.11
TTGGGCACGTGTAGAT	0.22
GGGGCCACGTGTTTGC	0
GACGTCACGTGTGGAG	0.04
GTGAGCACGTGATTCT	0.13
TGAGCCACGTGGTGTA	-0.04
TGTTGCACGTGAGGTT	0.14
TCTTTCACGTGAGTGC	0.43
AGTTTCACGTGTAGAG	0.24
GGCATCACGTGAGAGG	0.32
TGAATCACGTGATATT	0.28
GTCGCCACGTGGGGTA	-0.04
TAGATCACGTGTTTGC	0.1
AGTTTCACGTGTCGGA	0.18
GGGGTCACGTGGTATC	0.1
TGATTCACGTGGTAGA	0.26
GGGTACACGTGGGTAC	-0.14
TTACGCACGTGGGTTT	-0.19
GGGAACACGTGTTTTA	0.07
TGCTACACGTGATGGT	0.33

Sequence	relative binding free energy [kcal/mol]
CCGGGCACGTGGGGTA	-0.27
TTATACACGTGGCGGT	0
ATGATCACGTGGCGCG	0.14
GGAGGCACGTGAAGGC	0.05
GGAAACACGTGAGTGA	0.36
GTTGGCACGTGCAGAG	-0.1
TGATTCACGTGAGTGC	0.29
ATTGACACGTGTTTAT	-0.04
TTTTTCACGTGAGGTC	0.31
TGCGGCACGTGGCATG	-0.26
GTGCGCACGTGAGGTG	0.19
AGTTTCACGTGAGAAA	0.48
TTTTGCACGTGCAAAG	-0.08
TCTTTCACGTGTAAAA	0.55
CTGGCCACGTGTTGGA	0.05
TTTCGCACGTGTTGGA	0.09
AGTAACACGTGCGGGA	0.16
TACGGCACGTGTTGTA	-0.07
TGTATCACGTGTAGTA	0.1
TGAGACACGTGGGTAA	-0.1
AAAGGCACGTGTCAGG	-0.1
TCTATCACGTGTTGGT	0.25
TTATTCACGTGTATTA	0.19

Sequence	relative binding free energy [kcal/mol]
TGGGGCACGTGGGTAC	-0.22
GATGGCACGTGAGGCG	0.08
GGGCTCACGTGTTGCT	0.39
GGGGCCACGTGGGGAA	-0.23
CGAGGCACGTGTGTTA	-0.11
AAGTGCACGTGAAGCG	0.3
ATAGTCACGTGGGCGG	-0.14
ATGTGCACGTGACGTA	-0.02
ATATACACGTGTGGTG	0.04
AGTAACACGTGGTTGA	-0.06
GATATCACGTGGGGGA	0.04
TATTGCACGTGAGTAG	0.2
TATGACACGTGAATAG	0.27
GGGTGCACGTGCGCTA	-0.09
TGTTGCACGTGGTTTT	0.04
ATGTGCACGTGGGGCC	-0.29
TGCGTCACGTGGTAGA	-0.05
TTTGTCACGTGAGAAG	0.19
TTTTTCACGTGAGAGT	0.53
ATAATCACGTGGGCTG	-0.05
GTTAGCACGTGTTGTA	-0.07
AGCAACACGTGGTTGG	-0.04
CGAGTCACGTGCTGGG	0.11

Sequence	relative binding free energy [kcal/mol]
GGGTGCACGTGGAGAG	0.03
AGAAACACGTGTGTTG	-0.13
TTTGACACGTGTGCGG	0
CGGTTCACGTGCTGTG	0
GGGTACACGTGTTGTA	0.08
GATGGCACGTGTGCGA	-0.1
GGGTTCACGTGATTTC	0.48
TTGGACACGTGCGTTT	0.11
TTTTACACGTGATCAT	0.03
AGATGCACGTGTAGAG	0.04
GGAGGCACGTGCGCGT	-0.19
AGCGTCACGTGCGGGC	0.07
AATTTCACGTGTATAT	0.13
GTTGACACGTGAGATT	0.19
GGTGGCACGTGTATGT	0.05
GGGTGCACGTGGATTA	0.04
TTTTACACGTGTTATT	0.08
CGTGGCACGTGGTTAA	-0.24
GAGTGCACGTGGGCGT	-0.14
AGTGGCACGTGGTAAC	-0.11
CGGGACACGTGGTGTC	-0.04
CTTGGCACGTGGGATA	-0.32
CATAGCACGTGTATGG	-0.01

Sequence	relative binding free energy [kcal/mol]
AATTGCACGTGAGTTA	0.18
TATGGCACGTGGCTTC	0.04
GAATACACGTGGCGTG	0.06
CGGTCCACGTGGTTTT	0.09
GGTCACACGTGCGGGA	0.22
GGTCGCACGTGCGAGG	0.03
GGGTGCACGTGTGTCG	0.01
GTGTACACGTGTTACG	0.14
ATTTACACGTGGGTTC	0.12
GTGCACACGTGGTGGT	0.02
GGCAGCACGTGAGTTT	0.18
AACTGCACGTGGATGG	-0.04
GGTTTCACGTGGGGAT	0.26
TTTGACACGTGGAGTG	0.03
TGATCCACGTGGGGTT	-0.03
CTTATCACGTGTGGTC	0.35
CGGGACACGTGGTTGT	0.02
TGTGTCACGTGCAATG	-0.07
TTAGCCACGTGGGCGG	-0.34
TTCGTCACGTGGGAAT	0.15
TGGGGCACGTGAGGAC	0.09
TTAAGCACGTGTGATA	-0.01
AGTTACACGTGCAGTT	0.03
